We go through 98 molecules from PubChem BioAssay AID1508623 (National Center for Advancing Translational Sciences (NCATS), 2021).

Molecules are shown by their SMILES. Screen size: about 48,000 compounds; about 450 (0.94%) were called active. About 19% were inconclusive and are not listed. Calls follow the shape of the dose curve; as a rule, active = well fitted inhibition curve with a large enough effect; inconclusive = small, poorly fitted or top-dose-only effect; inactive = no such curve, though single readings can be large or run the other way. The list shows a part of the results.

A short description of this assay: Primary qHTS for Identification of Small Molecule Inhibitors of Huntingtin Promoter Activity. Also: nearly all actives have a fitted effect of over 50% in size. The note with it: HEK293 HTT promoter firefly luciferase reporter (activity 0% = vehicle and -100% = no light), 24 h; series mostly up to 57.5 µM; activity change, negative = inhibition: at the top concentration. In short, it runs like this:
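HEK293 luciferase promoter-reporter cells (2,500/well) plated 24 h, then compounds added at up to 57.5 uM final for 24 h at 37 °C. Firefly luminescence by Dual-Glo, normalized to vehicle (0%) and zero RLU (-100%).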
Turning to `CC(C)(C)NC(=O)c1ccc2nc(CCc3ccccc3)oc2c1`, the “activity change, negative = inhibition” value was inactive: 20.4%.

As for `Cc1cc(C)cc(N2C(=O)CCSC23C(=O)N(Cc2ccccc2)c2ccccc23)c1` (stereo not drawn), the “activity change, negative = inhibition” value is inactive: -6.79%. Under `CCOc1ccc(CCNC(=O)c2ccc3c(c2)sc2nc(-c4ccc(F)cc4)cn23)cc1OCC` stands inactive: -22.5%; under `Cc1ccc(C(CC(=O)Nc2ccc(F)c(Cl)c2)N2Cc3ccccc3C2=O)cc1` (stereo not drawn), inactive: -7.01%; under `COc1cccc(NC(=O)N(Cc2c[nH]c3ccccc23)C2CCCCC2)c1`, inactive: 20.8%.

Turning to `CC(C)c1ccc(NC(=O)CCn2c(=O)c3cccn3c3ccccc32)cc1`, the “activity change, negative = inhibition” value was inactive: -2.72%.

For the molecule `Cc1ccc(N2CC(NC(=O)C3CC3)CC2=O)cc1C` (stereo not drawn), the “activity change, negative = inhibition” value is inactive: -20.1%. Under `CCOC(=O)c1ccn(-c2nc(-c3cccc(OC)c3)cc(C(F)(F)F)n2)n1` stands inactive: -20.8%; under `Cc1nc2sccn2c(=O)c1S(=O)(=O)Nc1ccc(N2CCN(C(=O)C(C)C)CC2)cc1`, inactive: -31%; under `COc1cc(C(=O)Nc2nonc2-c2ccc(Cl)cc2)cc(OC)c1OC`, inactive: -25.2%. As to `Cc1cccc(N2CCN(S(=O)(=O)c3c(C(=O)N4CCC(C)CC4)c(C)n(C)c3C)CC2)c1C`, the “activity change, negative = inhibition” value was inactive: -38.2%. Under `Cc1ccc(NC(=O)Cn2cnc3sc(C)c(S(=O)(=O)N4CCN(c5ncccn5)CC4)c3c2=O)cc1F` stands inactive: -10.4%; under `COC(=O)c1ccc(NC(=O)CC2C(=O)N(c3ccccc3)C(=O)N2Cc2ccco2)cc1` (stereo not drawn), inactive: -18.7%; under `COc1ccc(NC(=O)CSC2=Nc3ccccc3C3=NC(CC(=O)NCc4ccc5c(c4)OCO5)C(=O)N23)cc1` (stereo not drawn), inactive: 0%. For `CCOc1ccc(C(c2c(O)cc(C)n(Cc3ccco3)c2=O)N2CCN(c3ccccc3)CC2)cc1` (stereo not drawn) the value was inactive: -7.46%; for `CCCc1cnc2c(c1SCC(=O)Nc1ccccc1F)c(=O)n(C)c(=O)n2C`, inactive: -33.8%; for `CCc1nn(Cc2c(C)cc(C)cc2C)c(=O)c2cc3cc(C)ccc3n12`, inactive: -8.77%.

Consider `CCCC12CN3CC(CCC)(CN(C1)C3c1c(C)[nH]c(=O)[nH]c1=O)C2=O` (stereo not drawn), for which the “activity change, negative = inhibition” value was inactive: -7.85%. For `COc1ccc(C)cc1NC(=O)CN1C(=O)COc2ccc(S(=O)(=O)NC3CCCC3)cc21` the value was inactive: -7.68%.

As for `CCOc1ccccc1NC(=O)c1nn(C)c2c1CSc1ccccc1-2`, the “activity change, negative = inhibition” value is inactive: -8.88%. For `CCOc1ccc(-c2csc(-c3c(N)c(C(=O)c4ccc5c(c4)OCO5)n4ccccc34)n2)cc1` the value was inactive: -0.164%; for `CCOC(=O)c1cc(S(=O)(=O)Nc2ccccc2OCC)[nH]n1`, inactive: -4.98%. With `Cc1ccccc1CSc1nc2c([nH]c3ccccc32)c(=O)n1C`, the “activity change, negative = inhibition” value is inactive: -1.08%.

On to `CCCc1cc(=O)[nH]c(SCc2nc(-c3ccccc3F)no2)n1`, for which the “activity change, negative = inhibition” value is inactive: 8.55%. Under `COc1ccc(-n2c(=O)c3c4c(sc3n3c(SC(C)C)nnc23)COC(C(C)C)C4)cc1` (stereo not drawn) stands inactive: 1.08%; under `CCCn1c(=NC(=O)c2c(-c3c(F)cccc3Cl)noc2C)c(C(=O)OCC)cc2c(=O)n3ccccc3nc21`, inactive: -11.5%.

Consider `CC(=O)c1cccc(Nc2ccc3cc(S(=O)(=O)N4CCCC4)ccc3n2)c1`, for which the “activity change, negative = inhibition” value is inactive: -19.8%. For `Cc1ccc(-n2ncc(C(=O)NCCN3CCc4ccccc4C3)c2C2CCNCC2)cc1C` the value was inactive: -5.04%; for `COc1ccc(NC(=O)c2cc(=O)c3ccc(C)c(C)c3o2)cc1Cl`, inactive: -9.06%. `CC1CCN(S(=O)(=O)c2ccc3c(c2)N(CC(=O)NCCCN2CCCC(C)C2)C(=O)CS3)CC1` (stereo not drawn): the “activity change, negative = inhibition” value was inactive: -8.88%. Regarding `CCN(CC)CCN`, the “activity change, negative = inhibition” value is inactive: 12.1%. As for `CCOc1ccc(NC(=O)C(C)Sc2nc3ncccc3o2)cc1` (stereo not drawn), the “activity change, negative = inhibition” value was inactive: 50.6%.

With `COc1ccc(-n2nc(C(=O)Nc3cccc(C)n3)c3c4ccccc4n(C)c3c2=O)cc1`, the “activity change, negative = inhibition” value is inactive: -26.5%.

In the case of `CC(=O)c1ccc(N2CCN(c3ncnc4c3cnn4C)CC2)cc1`, the “activity change, negative = inhibition” value was inactive: -20%. For `Cc1ccc2c(c1)-c1ncc(C(=O)c3cc(Br)ccc3O)cc1CO2` the value was inactive: -8.48%. Turning to `Cc1cc(C)cc(NC(=O)Cn2c(=O)n(Cc3ccc4c(c3)OCO4)c(=O)c3oc4ccccc4c32)c1`, the “activity change, negative = inhibition” value was inactive: 0.303%.

For the molecule `Cc1cccc(CNC(=O)Cn2ccc3cc(S(=O)(=O)N4CCC(C)CC4)ccc32)c1`, the “activity change, negative = inhibition” value was inactive: -14.8%. Consider `COc1ccccc1-c1cc(C(F)(F)F)nc(S(=O)(=O)CCCC(=O)Nc2ccc(F)cc2F)n1`, for which the “activity change, negative = inhibition” value is inactive: 21.1%. With `COc1ccc(-c2ccc(CCC(=O)O)n2-c2cc(Cl)ccc2O)cc1`, the “activity change, negative = inhibition” value is inactive: 8.64%. Under `COc1cccc(C2CC(=O)Nc3c2c(=O)n(C)c2nc4ccccc4n32)c1` (stereo not drawn) stands inactive: -12.5%; under `CCOC(=O)C1CCN(C(=O)Cn2ncc3c([nH]c4ccccc43)c2=O)CC1`, inactive: 10.3%; under `CCC(C)N(C)C(=O)c1cc2ccccc2c(-c2ccccc2Cl)n1` (stereo not drawn), inactive: -20.8%. Turning to `O=C(Cn1nnc2sc3c(c2c1=O)CCCC3)Nc1ccc(F)c(Cl)c1`, the “activity change, negative = inhibition” value is inactive: -8.5%. For `CCCS(=O)(=O)NCCc1csc2nc(-c3ccc(OC)cc3)nn12`, the “activity change, negative = inhibition” value is inactive: -12.3%. For `COc1ccc(C2NC(=O)NC(C)=C2C(=O)Nc2cc(C)cc(C)c2)c(OC)c1` (stereo not drawn) the value was inactive: -1.27%; for `Cc1ccccc1CNC(=O)CCCn1nc(C)c2sc3ccccc3c2c1=O`, inactive: 5.88%. As to `CCc1c(C)nc2nncn2c1Nc1ccc(C)c(F)c1`, the “activity change, negative = inhibition” value is inactive: -35.7%.

Regarding `COc1ccccc1N(CC(=O)NCCSCc1ccc(Cl)cc1)S(C)(=O)=O`, the “activity change, negative = inhibition” value was inactive: -24.3%. For `CN(Cc1ccccc1)c1ncnc2c1nc1n2CCCC1` the value was inactive: -8.05%; for `COc1cccc(C(=O)Nc2nnc(S(=O)(=O)N3CCOCC3)s2)c1`, inactive: -4.57%.

Consider `CCCCOc1cccc(C(=O)Nc2cccc3ccc(C)nc23)c1`, for which the “activity change, negative = inhibition” value is inactive: -24.9%. On to `Cc1ccc(CS(=O)(=O)Cc2ccc(C(=O)NCCc3ccc(Cl)cc3)o2)cc1`, for which the “activity change, negative = inhibition” value was inactive: -4.07%.

Turning to `Cc1cc(C)c2c(=O)cc(C(=O)Nc3ccccc3Cl)oc2c1`, the activity change, negative = inhibition was inactive: 5.4% [at 11.5 µM]. For `Cc1ccc2c(CC(=O)Nc3cc(C(F)(F)F)ccc3Cl)coc2c1C` the value was inactive: -7.58%.

For the molecule `CCC12CN3CC(CC)(CN(C1)C3c1ccc(OCc3ccccc3)cc1)C2=O` (stereo not drawn), the “activity change, negative = inhibition” value was inactive: -3.19%. Under `CCOC(=O)c1c(C)[nH]c(C)c1S(=O)(=O)N1CCC(C(=O)Nc2ccccn2)CC1` stands inactive: 0.0988%; under `O=S(=O)(O)NC1CCCCC1`, inactive: 9.47%; under `Cc1ccc2oc(=O)n(CCNC(=O)Nc3ccccc3Cl)c2c1`, inactive: -11.9%. For `COc1ccc(C2CC(=O)Nc3c2c(=O)nc2c(C)cccn32)cc1` (stereo not drawn) the value was inactive: -9.77%; for `O=c1oc2ccc(Br)cc2cc1-c1nc(-c2ccccc2)no1`, inactive: -7.05%; for `CCC(C)NC(=O)C1CCC(CNS(=O)(=O)c2cccc3nsnc23)CC1` (stereo not drawn), inactive: -14.8% [at 11.5 µM]. Under `CCS(=O)(=O)N1CC(=O)N(c2ccc(C)c(C)c2)C(C)(C(=O)NC2CCCCC2)C1` (stereo not drawn) stands inactive: 5.6%; under `CCc1ccc(-c2nc3c(c(SCc4ccc(F)cc4)n2)Cc2c(CO)cnc(C)c2O3)cc1`, inactive: -18.2%. Turning to `Cc1cccc(NC(=O)CSc2nc3c(oc4ccccc43)c(=O)n2C(C)C)c1`, the “activity change, negative = inhibition” value was inactive: -24.3%. Under `CC1=C(C(=O)NCCc2ccc(Cl)cc2)C2(CCCCC2)OC1=O` stands inactive: -7.21%; under `COc1cccc(CNC(=O)Cn2ncc3c4ccccc4n(C)c3c2=O)c1`, inactive: 17.6%; under `COCCNC(=O)CCCn1c(SCC(=O)Nc2cccc(C)c2)nc2c(sc3ccccc32)c1=O`, inactive: -18.2%. For `COc1ccc(C(=O)c2oc3ccccc3c2NC(=O)COc2c(C)cc(C)cc2C)cc1` the value was inactive: 0.243%. Under `COc1cccc(CNC(=O)c2c(O)nc3ccccn3c2=O)c1` stands inactive: -6.68%. In the case of `CCOc1ccc(N2CC(c3nc4ccccc4n3CC(C)C)CC2=O)cc1` (stereo not drawn), the “activity change, negative = inhibition” value was inactive: 1.52%. Consider `COc1cc(-c2noc(-c3ccc(NCCc4ccccc4)c([N+](=O)[O-])c3)n2)cc(OC)c1OC`, for which the “activity change, negative = inhibition” value is inactive: 10.5%. For `CC(C)NC[C@@H](O)COc1cccc2ccccc12` the value was inactive: 3.99%; for `COc1cc(NC(=O)CCNS(=O)(=O)c2ccc3c(c2)CCN3C(=O)C2CC2)cc(OC)c1`, inactive: 5.74%.

Turning to `COCC(=O)N1CCc2cc(OC)c(OC)cc2C1COc1ccc2c(C)cc(=O)oc2c1` (stereo not drawn), the “activity change, negative = inhibition” value was inactive: -9%. For `Cc1ccc(C)c(N2CCN(C(=O)c3ccc4c(Cl)c5c(nc4c3)CCCC5)CC2)c1` the value was inactive: -5.78%. Under `O=C(Nc1sc2c(c1C(=O)NCc1ccccc1)CCCC2)c1cc(=O)c2cc(Cl)ccc2o1` stands inactive: 19.4%; under `N#Cc1ccccc1Cn1nnc2c(=O)[nH]c(C3CCCN(S(=O)(=O)c4ccc(F)cc4)C3)nc21` (stereo not drawn), inactive: -12.9%; under `CCOc1ccccc1N1CC(c2nc3ccccc3n2CCCOc2ccccc2OC)CC1=O` (stereo not drawn), inactive: 1.91%.

On to `O=C(NCc1ccccc1)C1CCC(CNS(=O)(=O)c2ccc(Br)s2)CC1` (stereo not drawn), for which the “activity change, negative = inhibition” value was inactive: -4.43%. With `CC1CCc2nn(CC(=O)Nc3cccc(C(F)(F)F)c3)c(=O)cc2C1` (stereo not drawn), the “activity change, negative = inhibition” value was inactive: -10.8%. Regarding `COc1cc(NC(=O)Cn2c(=O)n(C(C)C)c(=O)c3oc4ccccc4c32)cc(OC)c1`, the “activity change, negative = inhibition” value is inactive: -13.6%. Under `O=C(Nc1cccnc1Cl)c1cc(-c2ccc(Cl)cc2)on1` stands inactive: 2.55%; under `CCc1ccc(NC(=O)Cn2nnc(C(=O)NCc3ccco3)c2N)cc1`, inactive: -12.7%. For `COc1cccc(COC(=O)c2ccc(-c3nnn(Cc4ccccc4)n3)cc2)c1` the value was inactive: 15.1%; for `CC1CCN(S(=O)(=O)c2cc(C(=O)NCc3ccc(F)cc3)n(C)c2)CC1`, inactive: -25.9%; for `O=C1C(c2ccc(F)cc2)N(CCc2ccccc2)C(=O)CN1C1CCCCC1` (stereo not drawn), inactive: 13.2%. Under `COc1ccc(CN(C(=O)Nc2ccc(C)c(F)c2)C2CCN(C(C)=O)CC2)cc1` stands inactive: -8.63%; under `CC(C)c1ccc(C(=O)Nc2cccc3cccnc23)cc1`, inactive: 44.7%.

For `CC(=O)c1ccc(NC(=O)CCc2c(C)nn(-c3ccc4nncn4n3)c2C)cc1`, the “activity change, negative = inhibition” value is inactive: -9.4%. For `CCOc1ccc(CCNS(=O)(=O)c2c(C)nc3sc(C)cn3c2=O)cc1OCC` the value was inactive: -2.36%. For `CCC1CN(C(=O)N2CCC(C(=O)NCCOC)CC2)c2ccccc2O1` (stereo not drawn) the value was inactive: -1.26%; for `Cc1ccc(NC(=O)CCS(=O)(=O)c2ccc3nc(C)sc3c2)cc1`, inactive: -5.04%. Under `CCc1ccc(NC(=O)C2CCCN(S(=O)(=O)c3c(C)[nH]c(=O)[nH]c3=O)C2)cc1` (stereo not drawn) stands inactive: -4.16%; under `COC(=O)c1ccc(Cn2nc(-c3ccc(C)c(C)c3)ccc2=O)cc1`, inactive: -23.2%. With `O=C(CCS(=O)(=O)c1cc2c3c(c1)CCN3C(=O)CC2)NCc1ccc(F)cc1`, the “activity change, negative = inhibition” value is inactive: -21.7%. Under `COCCc1nn2c(=O)cc(COC(=O)COc3ccccc3C)nc2s1` stands inactive: -5.49%. Under `COc1ccc(Cl)cc1Nc1ncnc2c1nc1n2CCCC1` stands inactive: 5.02%. Under `O=C(Nc1noc2ccccc12)c1cccc(F)c1` stands inactive: 67.2%.
